{"source": "paper PMC12135187", "about": "“A role for pH dynamics regulating transcription factor DNA-binding selectivity”", "note": "This is one part of the list."}
{"biological_target": "T1, FOXC2 DBD WT (UniProt Q99958 72-172)", "T1 sequence": "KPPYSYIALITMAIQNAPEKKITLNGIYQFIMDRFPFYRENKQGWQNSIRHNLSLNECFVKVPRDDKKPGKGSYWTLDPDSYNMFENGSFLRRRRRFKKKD", "assay": "SELEX-seq (GST pull-down, four rounds, 16-nt random library); pH 7.0; 20 mM HEPES, 140 mM KCl, 0.05 mM TCEP-HCl, pH 7.0, room temperature, 30 min; 2.5 uM GST-FOXC2 DBD, 0.25 uM DNA library; high values mean tight binding", "conditions": "protein: recombinant; tags: N-terminal GST (pGEX-6P-2); dsDNA, one strand shown", "summary_of_the_method": "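GST-tagged FOXC2 DNA-binding domain (E. coli-expressed, glutathione-purified) was incubated with a DNA library carrying a 16 bp randomized region, at 0.25 μM DNA and 2.5 μM protein, for 30 min at RT in 20 mM HEPES, 140 mM KCl, 0.05 mM TCEP–HCl, pH 7. Complexes were captured on glutathione Sepharose beads, washed, heat-eluted and PCR-amplified over four rounds. Initial and selected libraries were Illumina MiniSeq sequenced. Relative enrichment came from the Bioconductor SELEX R package.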", "units": {"binding signal": "relative enrichment"}}
{"sequence": "ATTTCA", "binding signal": 0.293}
{"sequence": "TTGAAA", "binding signal": 0.229}
{"sequence": "AATATG", "binding signal": 0.282}
{"sequence": "ATATTC", "binding signal": 0.477}
{"sequence": "ATACCA", "binding signal": 0.401}
{"sequence": "AACACG", "binding signal": 0.457}
{"sequence": "CTGTAA", "binding signal": 0.281}
{"sequence": "CAGTCA", "binding signal": 0.518}
{"sequence": "AATTGT", "binding signal": 0.427}
{"sequence": "TATATA", "binding signal": 0.427}
{"sequence": "TACCAC", "binding signal": 0.564}
{"sequence": "TCCCAA", "binding signal": 0.374}
{"sequence": "ATGTGC", "binding signal": 0.332}
{"sequence": "ACTCAA", "binding signal": 0.294}
{"sequence": "AACAGA", "binding signal": 0.308}
{"sequence": "TATCGA", "binding signal": 0.449}
{"sequence": "ATAGAA", "binding signal": 0.4}
{"sequence": "CTTACA", "binding signal": 0.35}
{"sequence": "GGATAA", "binding signal": 0.319}
{"sequence": "ACCTTA", "binding signal": 0.322}
{"sequence": "ACATAC", "binding signal": 0.334}
{"sequence": "GTTTCA", "binding signal": 0.278}
{"sequence": "CCAATT", "binding signal": 0.305}
{"sequence": "CTCAAC", "binding signal": 0.306}
{"sequence": "CTTCTG", "binding signal": 0.655}
{"sequence": "ACAGTG", "binding signal": 0.32}
{"sequence": "CAAACC", "binding signal": 0.348}
{"sequence": "AAACGA", "binding signal": 0.433}
{"sequence": "CCGCTT", "binding signal": 0.566}
{"sequence": "CCACAT", "binding signal": 0.378}
{"sequence": "ACAGAA", "binding signal": 0.352}
{"sequence": "CTCATT", "binding signal": 0.311}
{"sequence": "TCTTAC", "binding signal": 0.583}
{"sequence": "TTCATG", "binding signal": 0.466}
{"sequence": "ACATGA", "binding signal": 0.366}
{"sequence": "AAGATT", "binding signal": 0.302}
{"sequence": "GCCTTG", "binding signal": 0.432}
{"sequence": "CATTCG", "binding signal": 0.647}
{"sequence": "CTCTAA", "binding signal": 0.497}
{"sequence": "TCTAAA", "binding signal": 0.362}
{"sequence": "CCTACA", "binding signal": 0.52}
{"sequence": "AATCCG", "binding signal": 0.396}
{"sequence": "ACCACA", "binding signal": 0.308}
{"sequence": "TACAAA", "binding signal": 0.279}
{"sequence": "GTTTAA", "binding signal": 0.412}
{"sequence": "ACTCGT", "binding signal": 0.431}
{"sequence": "ATAGTG", "binding signal": 0.381}
{"sequence": "ATAACG", "binding signal": 0.234}
{"sequence": "TTCTCA", "binding signal": 0.402}
{"sequence": "CTCAAA", "binding signal": 0.338}
{"sequence": "AGAAAA", "binding signal": 0.341}
{"sequence": "GGTCAA", "binding signal": 0.577}
{"sequence": "ATCACA", "binding signal": 0.311}
{"sequence": "CCGGTT", "binding signal": 0.383}
{"sequence": "TTCCCT", "binding signal": 0.474}
{"sequence": "AAGCCT", "binding signal": 0.404}
{"sequence": "ATTAAC", "binding signal": 0.24}
{"sequence": "CCCTAA", "binding signal": 0.411}
{"sequence": "AGCAAC", "binding signal": 0.284}
{"sequence": "CCTCAT", "binding signal": 0.455}
{"sequence": "ATTAAT", "binding signal": 0.302}
{"sequence": "GTAAAA", "binding signal": 0.244}
{"sequence": "CCAAAC", "binding signal": 0.36}
{"sequence": "CGTCTT", "binding signal": 0.521}
{"sequence": "CTATCA", "binding signal": 0.419}
{"sequence": "AAACTA", "binding signal": 0.325}
{"sequence": "ATTCGA", "binding signal": 0.503}
{"sequence": "ACAAGG", "binding signal": 0.32}
{"sequence": "ACCCAT", "binding signal": 0.43}
{"sequence": "ACATCT", "binding signal": 0.382}
{"sequence": "ATAGCA", "binding signal": 0.284}
{"sequence": "ACCCTA", "binding signal": 0.499}
{"sequence": "AGCGTA", "binding signal": 0.542}
{"sequence": "ACATCC", "binding signal": 0.44}
{"sequence": "TCGTAA", "binding signal": 0.409}
{"sequence": "AGTAAT", "binding signal": 0.428}
{"sequence": "AAATTG", "binding signal": 0.254}
{"sequence": "TGCCTT", "binding signal": 0.37}
{"sequence": "AGTTTG", "binding signal": 0.37}
{"sequence": "CACAAA", "binding signal": 0.496}
{"sequence": "ACTAAC", "binding signal": 0.301}
{"sequence": "AATACC", "binding signal": 0.425}
{"sequence": "CAAAGG", "binding signal": 0.381}
{"sequence": "AATACT", "binding signal": 0.328}
{"sequence": "ATGCAA", "binding signal": 0.311}
{"sequence": "CTTGAA", "binding signal": 0.459}
{"sequence": "AGCTTG", "binding signal": 0.361}
{"sequence": "AGTGAT", "binding signal": 0.481}
{"sequence": "GACTTA", "binding signal": 0.52}
{"sequence": "TCAAAA", "binding signal": 0.256}
{"sequence": "TCAATC", "binding signal": 0.416}
{"sequence": "AGACAT", "binding signal": 0.369}
{"sequence": "TCTACA", "binding signal": 0.446}
{"sequence": "CTTCAA", "binding signal": 0.481}
{"sequence": "ATAAGA", "binding signal": 0.307}
{"sequence": "CTGATA", "binding signal": 0.36}
{"sequence": "AGTTAA", "binding signal": 0.271}
{"sequence": "TATCAA", "binding signal": 0.376}
{"sequence": "ATAGTA", "binding signal": 0.304}
{"sequence": "AAGTAC", "binding signal": 0.447}
{"sequence": "GGTAAA", "binding signal": 0.489}
{"sequence": "ATTCAG", "binding signal": 0.454}
{"sequence": "ACTTTG", "binding signal": 0.358}
{"sequence": "AGATAC", "binding signal": 0.416}
{"sequence": "CTTGGT", "binding signal": 0.411}
{"sequence": "TATTCA", "binding signal": 0.336}
{"sequence": "ACTGAA", "binding signal": 0.437}
{"sequence": "CCAGTT", "binding signal": 0.378}
{"sequence": "AAATTC", "binding signal": 0.343}
{"sequence": "ACATAT", "binding signal": 0.476}
{"sequence": "GTCTAA", "binding signal": 0.372}
{"sequence": "ACGTAA", "binding signal": 0.385}
{"sequence": "AAACGG", "binding signal": 0.363}
{"sequence": "TCTGAT", "binding signal": 0.388}
{"sequence": "TATTAA", "binding signal": 0.302}
{"sequence": "AACTCT", "binding signal": 0.274}
{"sequence": "AACTTG", "binding signal": 0.349}
{"sequence": "ATATAA", "binding signal": 0.218}
{"sequence": "TCTATC", "binding signal": 0.361}
{"sequence": "ACGTCA", "binding signal": 0.506}
{"sequence": "TCCTTG", "binding signal": 0.369}
{"sequence": "GCATTA", "binding signal": 0.334}
{"sequence": "ACAGAG", "binding signal": 0.418}
{"sequence": "ACTAAT", "binding signal": 0.328}
{"sequence": "AATGCT", "binding signal": 0.3}
{"sequence": "AATCGA", "binding signal": 0.377}
{"sequence": "CAATCA", "binding signal": 0.4}
{"sequence": "ATATGC", "binding signal": 0.286}
{"sequence": "CTAAAG", "binding signal": 0.401}
{"sequence": "TATGAA", "binding signal": 0.387}
{"sequence": "ACCATA", "binding signal": 0.358}
{"sequence": "AAAGAA", "binding signal": 0.336}
{"sequence": "TTACCC", "binding signal": 0.469}
{"sequence": "ACTCTC", "binding signal": 0.499}
{"sequence": "TCCAAA", "binding signal": 0.348}
{"sequence": "TCACTG", "binding signal": 0.414}
{"sequence": "AGAACA", "binding signal": 0.241}
{"sequence": "AACTGT", "binding signal": 0.213}
{"sequence": "CTCTTG", "binding signal": 0.394}
{"sequence": "ATCGGT", "binding signal": 0.436}
{"sequence": "ACGACA", "binding signal": 0.264}
{"sequence": "ACTTTA", "binding signal": 0.273}
{"sequence": "AAAATA", "binding signal": 0.439}
{"sequence": "ATATAC", "binding signal": 0.28}
{"sequence": "CCTTAA", "binding signal": 0.358}
{"sequence": "ATTAAG", "binding signal": 0.403}
{"sequence": "ACCACT", "binding signal": 0.588}
{"sequence": "CCGATT", "binding signal": 0.357}
{"sequence": "AGCTAT", "binding signal": 0.288}
{"sequence": "ACTCTA", "binding signal": 0.386}
{"sequence": "ACTGAT", "binding signal": 0.368}
{"sequence": "AGACAA", "binding signal": 0.271}
{"sequence": "AGCCTA", "binding signal": 0.371}
{"sequence": "GTGTCA", "binding signal": 0.372}
{"sequence": "ATAGCG", "binding signal": 0.407}
{"sequence": "TATTGA", "binding signal": 0.511}
{"sequence": "CATAGC", "binding signal": 0.422}
{"sequence": "CATAAG", "binding signal": 0.406}
{"sequence": "ACGAAT", "binding signal": 0.379}
{"sequence": "CAAAAC", "binding signal": 0.33}
{"sequence": "ACCTAA", "binding signal": 0.327}
{"sequence": "ATTTAA", "binding signal": 0.337}
{"sequence": "ATACTA", "binding signal": 0.334}
{"sequence": "ACTACT", "binding signal": 0.459}
{"sequence": "AAGTGT", "binding signal": 0.298}
{"sequence": "CTTATC", "binding signal": 0.378}
{"sequence": "CAATGC", "binding signal": 0.376}
{"sequence": "ACAGCC", "binding signal": 0.39}
{"sequence": "ATTTCG", "binding signal": 0.454}
{"sequence": "AATTAG", "binding signal": 0.241}
{"sequence": "CCCTAT", "binding signal": 0.389}
{"sequence": "AATTCA", "binding signal": 0.336}
{"sequence": "AATCTG", "binding signal": 0.283}
{"sequence": "GTAAAC", "binding signal": 0.561}
{"sequence": "CCCTTT", "binding signal": 0.402}
{"sequence": "CGTTCT", "binding signal": 0.485}
{"sequence": "CCGTTG", "binding signal": 0.343}
{"sequence": "CAGCAA", "binding signal": 0.292}
{"sequence": "TACACA", "binding signal": 0.394}
{"sequence": "AAGCAA", "binding signal": 0.496}
{"sequence": "TCGCTT", "binding signal": 0.407}
{"sequence": "GCCATA", "binding signal": 0.387}
{"sequence": "TAACCA", "binding signal": 0.353}
{"sequence": "CAATAG", "binding signal": 0.291}
{"sequence": "AATTGC", "binding signal": 0.3}
{"sequence": "AACCTG", "binding signal": 0.314}
{"sequence": "TAAGTA", "binding signal": 0.459}
{"sequence": "CAAAAA", "binding signal": 0.267}
{"sequence": "AAGAAT", "binding signal": 0.372}
{"sequence": "TTCCAT", "binding signal": 0.426}
{"sequence": "GGCAAA", "binding signal": 0.313}
{"sequence": "TAGCCT", "binding signal": 0.397}
{"sequence": "TTCCTA", "binding signal": 0.364}
{"sequence": "CGAAAA", "binding signal": 0.303}
{"sequence": "ATTTTG", "binding signal": 0.27}
{"sequence": "ACGCAA", "binding signal": 0.314}
{"sequence": "ACTACA", "binding signal": 0.297}
